This note sets out measurements from article PMC4336329 (PLoS ONE, 2015).

Each structure is given as a SMILES string. Out of some 310,000 compounds screened, about 2,200 (0.71%) showed an effect of 50% or more. The effect is printed as a negative number. The list shows a part of the results.

The target in the test is human ether-à-go-go-related gene (hERG) potassium channel (human, UniProt Q12809). The test can be described thus: primary screen, population patch clamp on CHO cells stably expressing hERG.
human ether-à-go-go-related gene (hERG) potassium channel, sequence (Q12809 whole entry, looked up): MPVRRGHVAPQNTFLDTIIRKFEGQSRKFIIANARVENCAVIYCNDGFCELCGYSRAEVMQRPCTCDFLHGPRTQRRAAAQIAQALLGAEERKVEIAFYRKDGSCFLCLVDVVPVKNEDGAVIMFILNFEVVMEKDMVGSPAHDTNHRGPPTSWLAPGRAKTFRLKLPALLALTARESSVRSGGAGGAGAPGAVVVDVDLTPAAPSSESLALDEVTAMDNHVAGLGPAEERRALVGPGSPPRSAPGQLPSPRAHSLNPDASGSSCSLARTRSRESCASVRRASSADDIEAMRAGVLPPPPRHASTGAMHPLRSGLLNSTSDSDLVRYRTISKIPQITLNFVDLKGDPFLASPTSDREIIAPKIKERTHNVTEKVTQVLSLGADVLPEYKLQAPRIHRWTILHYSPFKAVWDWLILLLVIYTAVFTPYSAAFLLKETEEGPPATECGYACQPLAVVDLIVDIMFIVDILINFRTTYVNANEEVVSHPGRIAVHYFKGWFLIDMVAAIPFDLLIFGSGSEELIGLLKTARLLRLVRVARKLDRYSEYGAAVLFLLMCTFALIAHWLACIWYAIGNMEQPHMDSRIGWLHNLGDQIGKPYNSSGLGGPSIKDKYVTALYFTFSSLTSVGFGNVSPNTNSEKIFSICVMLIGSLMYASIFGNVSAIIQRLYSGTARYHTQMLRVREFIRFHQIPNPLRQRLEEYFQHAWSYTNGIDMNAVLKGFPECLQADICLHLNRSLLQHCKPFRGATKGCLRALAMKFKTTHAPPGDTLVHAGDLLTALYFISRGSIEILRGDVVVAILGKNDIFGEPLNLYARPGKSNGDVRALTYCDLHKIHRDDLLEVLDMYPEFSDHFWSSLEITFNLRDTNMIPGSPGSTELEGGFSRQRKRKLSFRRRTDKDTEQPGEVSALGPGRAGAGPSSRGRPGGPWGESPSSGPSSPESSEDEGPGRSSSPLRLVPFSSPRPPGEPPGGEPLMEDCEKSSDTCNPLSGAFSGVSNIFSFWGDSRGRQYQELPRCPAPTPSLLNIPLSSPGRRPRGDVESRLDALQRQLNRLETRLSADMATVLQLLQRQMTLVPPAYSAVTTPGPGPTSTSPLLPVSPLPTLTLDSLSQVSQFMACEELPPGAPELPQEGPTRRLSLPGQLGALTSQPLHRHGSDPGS
Take `CCCCOc1cccc(/C=N/NC(=O)c2csc(C)c2C)c1`: the “hERG current change (%, negative = inhibition) at 1uM” value is listed as 10.6%.
Under `Cc1cc(C)c(NC(=O)CS(=O)CC(=O)Nc2cccnc2)c(C)c1` (stereo not shown) stands 2.66%; under `O=C(CCc1ccc(S(=O)(=O)NC2CCCCC2)cc1)NCc1ccccc1`, 3.89%; under `CCCC(CCC)C(=O)Nc1cccc(-c2cn3c(n2)SCC3)c1`, 12.8%.
For `O=C(CCCN1C(=O)c2ccccc2C1=O)Oc1ccc(F)cc1` the value was -3.02%.
Under `CCOC(=O)CSc1nc2ccc(S(=O)(=O)N3CCOCC3)cc2[nH]1` stands 22%; under `O=C(Nc1ccc2c(c1)OCO2)c1cccc(Cl)c1`, 7.16%; under `O=C1NC2(CCCCC2)NN1c1ccccc1`, 15.5%.
Turning to `O=C(OC1CCCCC1)c1ccc(NC(=O)c2ccco2)cc1`, the “hERG current change (%, negative = inhibition) at 1uM” value is -16.6%.
For `Cc1cc(C)c(C)c(S(=O)(=O)N[C@@H](C)C(=O)OCc2cc(=O)n3cc(Br)ccc3n2)c1C` the value was -10.2%; for `COc1ccc(/C=C/c2nnc(NC(=O)COc3ccc(C)cc3)s2)cc1`, 8.37%; for `O=S(=O)(c1ccccc1Cl)N1CCC(O)(c2cccnc2)CC1`, 13.8%.
Take `O=c1cc(CN2CCc3ccccc32)c2ccc(O)cc2o1`: the “hERG current change (%, negative = inhibition) at 1uM” value is recorded as 12%.
For `Cc1cc(=O)oc(C)c1C(=O)NCCC1=CCCCC1` the value was 0.393%; for `COCCNC(=O)CCn1nc(-c2ccc(C)cc2)c2ccccc2c1=O`, -0.937%; for `O=C(CS(=O)(=O)c1ccccc1Cl)N1CCOCC1`, 7.8%.
Under `COc1ccccc1/C=C\C=N\NC(=O)c1ccco1` stands 1.7%; under `O=C(Nc1ccccc1N1CCOCC1)c1cccc(S(=O)(=O)Nc2ccccc2F)c1`, -1.98%; under `O=C(Cc1ccccc1)NCC(=O)Nc1cccc(Br)c1`, 6.25%.
For `NCCCC[C@H]1CNC(=S)N1CCc1cccc(F)c1` the value was 4.42%; for `COc1ccc2oc(C(=O)N(Cc3ccco3)Cc3cccs3)c(C)c2c1`, 4.93%.
Regarding `CN(N)c1nc2ccccc2nc1C(F)(F)F`, the “hERG current change (%, negative = inhibition) at 1uM” value came to 12.2%.
Under `O=C(c1cc(COc2ccc(F)cc2Cl)on1)N1CCCCC1c1cccnc1` (stereo not shown) stands -9.34%; under `O=C(O)CCN1C(=O)/C(=C\c2cccc(OCC(=O)Nc3ccc(Cl)cc3)c2)SC1=S`, 8.14%; under `COc1ccccc1N1CCN(/N=C\c2ccccc2)CC1`, 7.75%.
For `COc1ccc(-c2cc(C(=O)NN)[nH]n2)cc1OC` the value was 5.53%; for `S=c1[nH]nc(-c2ccco2)n1/N=C/C(Cl)=C/c1ccccc1`, 13.5%; for `CCc1cc(C(=O)OC)c(NC(=O)CC2SC(=NC)N(C)C2=O)s1` (stereo not shown), 9.92%.
Under `O=C(CCc1nnc2ccc(NCCCN3CCCC3=O)nn12)NCc1ccccc1Cl` stands 2.58%; under `COc1ccc(NC(=O)Nc2ccon2)c(OC)c1`, 12.6%.
Turning to `CN1CCN(C(=O)c2cccc(COc3cc(Cl)ccc3Cl)c2)CC1`, the “hERG current change (%, negative = inhibition) at 1uM” value was -12.3%.
`CCOc1ccc(NC(=O)/C(C#N)=C/c2cn(CC(=O)O)c3ccccc23)cc1`: the “hERG current change (%, negative = inhibition) at 1uM” value turned out to be 11.3%.
Under `c1ccc(CO/N=C(\c2ccc(C3CC3)nc2)C2CC2)cc1` stands 6%; under `CCC(C)c1ccc(NC(=O)COC(=O)c2nc3nccc(C)n3n2)cc1` (stereo not shown), 4.01%.
For `CC(C)CC(C(=O)NC(C)(C)C)N(Cc1ccccc1Cl)C(=O)c1snc(C(N)=O)c1N` (stereo not shown), the “hERG current change (%, negative = inhibition) at 1uM” value is 8.04%.
For `CC(C)(C)NC(=O)C(Cc1ccccc1)N1C(=O)c2ccccc2C1=O` (stereo not shown) the value was 12.3%; for `Cc1cc(C)n(C(C)Sc2ccccc2)n1` (stereo not shown), 7.9%.
`COc1cccc(C(=O)Nc2ccc3[nH]c(=O)[nH]c3c2)c1OC`: the “hERG current change (%, negative = inhibition) at 1uM” value was found to be 15.6%.
For `CC(=O)c1ccc(N(C(=O)Cc2c[nH]c3ccccc23)C(C(=O)NC2CCCCC2)c2cccs2)cc1` (stereo not shown) the value was 10.9%.
Regarding `CCCc1nc2c(c(=O)c3ccccc3n2C)c(=O)n1-c1ccc(F)cc1`, the “hERG current change (%, negative = inhibition) at 1uM” value is 14.1%.
Under `COC(=O)c1ccc(CSc2nnnn2Cc2ccccc2)cc1` stands -5.09%; under `CCOc1ccc(-c2nnn(CC(=O)c3ccc4c(c3)OCCO4)n2)cc1`, 3.94%; under `O=C(CN(c1ccc(F)cc1)S(=O)(=O)c1ccc2c(c1)OCCO2)Nc1ccc2c(c1)OCO2`, 9.51%.
Under `CC(C)C[C@@H](CN=[N+]=[N-])N1CCN(Cc2ccccc2)CCC1=O` stands 4%; under `CCOc1ccccc1NC(=O)Cn1nc(-c2ccco2)ccc1=O`, 7.78%; under `O=C(CCN1C(=O)COc2ccccc21)N1CCN(c2ccccc2)CC1`, -3.02%.
On to `CCOc1ccc(NC(=O)CSc2nnc(CNC(=O)c3cccs3)o2)cc1`, for which the “hERG current change (%, negative = inhibition) at 1uM” value came to 12%.
Turning to `O=C(COC(=O)c1ccc(O)cc1O)NC1CCCCCC1`, the “hERG current change (%, negative = inhibition) at 1uM” value worked out at 7.68%.
For `O=C(NCc1ccccc1)c1ccc(CSc2ccccc2)o1` the value was -1.22%; for `Cc1ccc(-c2nc3ccccc3c(=O)n2O)cc1`, 20.5%; for `O=C(NCc1cc(F)ccc1F)C1CCC(=O)N(C2CCCCCC2)C1` (stereo not shown), 18.9%.
Under `Cc1nn(C(C)C(=O)NCCc2cccs2)c(=O)c2nn(-c3ccccc3)c(C)c12` (stereo not shown) stands -3.17%.
In the case of `COc1ccc(S(=O)(=O)N/N=C(/C)c2ccncc2)cc1`, the “hERG current change (%, negative = inhibition) at 1uM” value is -0.381%.
Under `Cc1ccc2oc(=O)c3cc(C(=O)N4CCN(C)CC4)sc3c2c1` stands 12.9%.
Under `COc1ccc(C(N)=O)cc1N` stands 21.1%; under `O=C(COC(=O)Cc1ccccc1[N+](=O)[O-])NCc1ccc(Cl)cc1`, 5.27%; under `CC1=C(C(=O)N2CCCCC2)C(c2cccs2)NC(=O)N1` (stereo not shown), 6.64%.
As to `O=C(Nc1ccsc1C(=O)NC1CCCCC1)c1ccc(F)cc1`, the “hERG current change (%, negative = inhibition) at 1uM” value amounted to 1.17%.
For `O=C(O)c1ccc(-n2c(-c3ccccc3)n[nH]c2=S)cc1`, the “hERG current change (%, negative = inhibition) at 1uM” value is recorded as 15.2%.
As for `CC(=O)c1ccc(N2CCN(C(=O)c3cccs3)C(C)C2)c(F)c1` (stereo not shown), the “hERG current change (%, negative = inhibition) at 1uM” value stood at 1.21%.
In the case of `Cc1cc(S(=O)(=O)N2CCCC(N(C)CCc3ccccn3)C2)c(C)s1` (stereo not shown), the “hERG current change (%, negative = inhibition) at 1uM” value is on record as -13.9%.
For `CCOc1ccc(NC(=O)CSc2nnc(-c3ccccc3Cl)n2Cc2ccco2)cc1` the value was 1.27%.
Under `Cc1oc(-c2ccc(Cl)cc2)nc1CN1CCCC(C(=O)NCc2ccco2)C1` (stereo not shown) stands -56.4%; under `CCN(CC)C(=O)CSc1nc2c(sc(=S)n2-c2ccccc2)c(=O)n1-c1ccc(OC)cc1OC`, 10.7%; under `CN1C(=O)C2ON(c3ccccc3)C(c3cccs3)C2C1=O` (stereo not shown), -2.68%.
For `Brc1ccc(CNCC2CCCO2)cc1` (stereo not shown) the value was 9.87%; for `CCc1cccc2c(C(=O)CN3C(=O)N(C)C4(CCCCC4)C3=O)c[nH]c12`, 7.45%; for `Cc1ccccc1Cn1cc(/C=N/n2cnnc2)c2ccccc21`, 13.8%.
With `O=C(CSc1nnc(Cc2ccc3c(c2)OCO3)n1C1CCCCC1)NC1CCCC1`, the “hERG current change (%, negative = inhibition) at 1uM” value amounted to 13.2%.
Regarding `O=C(NCC1CCCO1)C1CCCN(S(=O)(=O)c2ccc(Cl)cc2)C1` (stereo not shown), the “hERG current change (%, negative = inhibition) at 1uM” value is 5.63%.
Under `COc1cc2c(cc1OC)CN(Cc1cc(=O)n3cc(C)ccc3n1)CC2` stands -7.37%.
With `O=C(Nc1ccc(Br)cc1F)c1cccnc1`, the “hERG current change (%, negative = inhibition) at 1uM” value is listed as -1.23%.
For `COc1ccc(CNC(=O)c2ccc(N3CCOCC3)c([N+](=O)[O-])c2)cc1` the value was -7.32%; for `CC1Cc2ccccc2N1C(=O)CN1C(=O)CN(C)C(=O)c2ccccc21` (stereo not shown), 11.1%; for `CCn1c(SCC(=O)NNC(=O)c2ccc(C)cc2)nnc1C1CC1`, 18.7%.
As for `COc1ccccc1N1CCN(S(=O)(=O)CCNC(=O)Cc2ccc(F)cc2)CC1`, the “hERG current change (%, negative = inhibition) at 1uM” value is 6.71%.
In the case of `CCN(CC)C(=O)C(Oc1ccc(C)nc1[N+](=O)[O-])c1ccccc1` (stereo not shown), the “hERG current change (%, negative = inhibition) at 1uM” value amounted to 12.9%.
For `COc1ccccc1-n1cnc2cc(NC(=O)c3ccco3)ccc21` the value was 3.6%; for `O=C(CNC(=O)Cc1cccc2ccccc12)NCc1ccccc1F`, 9.57%.
For `CC(NC(=O)Cc1ccccc1)C(c1ccccc1)N1CCOCC1` (stereo not shown), the “hERG current change (%, negative = inhibition) at 1uM” value came out at 20.3%.
Under `COCCNC(=O)COc1ccccc1C` stands 8.14%.
For `Cc1ccc(/C=C2\C(=O)NC(=O)N(CCc3ccc(F)cc3)C2=O)s1` the value was 11.9%.
Under `CCNC(=O)NC(=O)C(C)Sc1ccc2c(c1)OCCO2` (stereo not shown) stands 7.84%; under `COCCn1c(C)cc(C(=O)COc2ncnc3ccc(Br)cc23)c1C`, 4.21%; under `CN(C)CCCN(C(=O)/C=C/c1cccs1)c1nc2ccc(F)cc2s1.Cl`, 4.03%.
For the compound `CCC(C)NC(=O)c1cn(-c2cccc(OC)c2)c(=O)c2ccccc12` (stereo not shown), the “hERG current change (%, negative = inhibition) at 1uM” value is 9.02%.
Under `Cc1c(N)ccc(-n2nc3ccccc3n2)c1C` stands 7.32%; under `CC1(C)CC(=O)C(N=Nc2ccc(F)cc2)=C(O)C1`, 6.08%.
Under `c1ccc2c(c1)nnn1c3ccccc3nc21` stands 9.5%; under `O=C(NCc1ccc(Cl)cc1)c1ccc(CNc2c(N3CCCC3)c(=O)c2=O)cc1`, 9.61%.
As for `Cc1cccc(C)c1NC(=O)CN(C)C(=O)c1ccc(N2C(=O)CCC2=O)cc1`, the “hERG current change (%, negative = inhibition) at 1uM” value turned out to be 5.56%.
